Laboratory results reported in PMC8905533.

Substrate: O=C(O)C(=O)O
Assay: purified protein
Details: 5 mM ATP, 2 mM CoA, 5 mM MgCl2, HEPES pH 8, room temperature

B1: LsOCS (oxalyl-CoA synthetase) (Lathyrus sativus) (protein)
chain: ETATTLTGLLQSVAKTFPSRRGISLAGKFDLTHSHLNELVESAADHLISAGIKPNDVVALTFPNTVEYVILFLAVIRVRATAAPLNAAYTAEEFEFYLSDSESKLLLTPLEGNKPAQDAASKLSIPLGSASLTKSEEETKLTISLKHPESGLKSDSVNSVAKLINEPSDVALFLHTSGTTSRPKGVPLTQHNLVSSVKNIQSVYQLTESDSTVIVLPLFHVHGLIAGLLSSLGSGAAVVLPAAGRFSASTFWKDMIQYNATWYTAVPTIHQIILDRHLNNPEPAYPKLRFIRSCSASLAPVILGRLEESFGAPVLEAYAMTEASHLMSSNPLPQNGPHKAGSVGKPVGQEMAILDESGRVLEAGVNGEVCIRGENVTKGYKNNEAANTAAFLFGWFHTGDIGYFDSDGYLHLVGRIKELINRGGEKISPIEVDAVLLSHPDVAQAVAFGIPDQKYGEEIHCAIIPREGSNIDAEEVLTFCKKNLASFKVPKKVFITDSLPKTATGKILRRLVAEHFVSKV
  Km: 71.5 ± 13.3 µM
